Test results as given in the supplement of paper PMC4967469.
IC50 is the fitted dose that halves viability relative to control wells, and lower means more sensitive; a limit (>, <) means that the fit lies beyond the doses tested. AUC is the area under the same curve over the 256-fold range up to the top dose, as a fraction; the more sensitive the line, the further below 1. For part of these data: A top dose marked as inferred was calculated from the reported fits. For part of these data: An entry number marks a drug with two screens in the source, which often give different values.

Experiments:
Experiment in all cases: Viability of human cancer cell lines after 72 h of drug (GDSC screen)
[1] = compound: COc1cc2ncn(-c3cc(OCc4ccccc4S(C)(=O)=O)c(C#N)s3)c2cc1OC [KIN001-135]; settings: top dose 5 µM; top dose inferred
Protocol: (§1)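 Human cancer cell lines in 384-well plates, medium with 10% serum, drug for 72 h over a 256-fold dose range (nine 2-fold or five 4-fold steps up to the top dose). Adherent lines were fixed and stained with the nucleic acid dye Syto60, suspension lines read with resazurin; signal relative to control wells, capped at 0 and 100%. One two-parameter sigmoid per drug and line, fitted in a mixed model over all curves with the slope shared within a line.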

[2] = compound: C=CCc1cccc(/C=N/NC(=O)CN2CCN(Cc3ccccc3)CC2)c1O [PAC-1]; settings: top dose 2.56 µM
Protocol: as §1

[3] = compound: C=C1C(=O)O[C@H]2[C@H]1CC/C(C)=C/CC[C@@]1(C)O[C@@H]21 [Parthenolide]; settings: top dose 5 µM
Protocol: as §1

[4] = compound: NC(=O)[C@@H](CCC(F)(F)F)N(Cc1ccc(-c2ncon2)cc1F)S(=O)(=O)c1ccc(Cl)cc1 [BMS-708163]; settings: top dose 5 µM; screen: GDSC drug entry 1072; top dose inferred
Protocol: as §1

Cell Line	AUC [1]	IC50 [1] [µM]	AUC [2]	IC50 [2] [µM]	AUC [3]	IC50 [3] [µM]	AUC [4]	IC50 [4] [µM]
DMS-114 (small cell lung carcinoma, adherent)	0.985	> 5	0.977	> 2.56	0.985	> 5	0.984	> 5
DND-41 (T-cell leukaemia, suspension)	0.984	> 5	0.745	0.724	0.941	> 5	0.941	> 5
DSH1 (bladder, adherent)	0.989	> 5	0.986	> 2.56	0.989	> 5	0.959	> 5
DU-4475 (breast, suspension)	0.992	> 5	0.846	1.37	0.879	3.54	0.991	> 5
Daudi (Burkitt lymphoma, suspension)	0.983	> 5	0.792	0.997	0.886	4.29	0.976	> 5
EB2 (Burkitt lymphoma, suspension)	0.986	> 5	0.832	1.42	0.988	> 5	0.989	> 5
EB-3 (Burkitt lymphoma, suspension)	0.983	> 5	0.885	> 2.56	0.95	> 5	0.984	> 5
EC-GI-10 (oesophagus, adherent)	0.986	> 5	0.989	> 2.56	0.987	> 5	0.976	> 5
EJM (lymphoid neoplasm, semi-adherent)	0.991	> 5	0.991	> 2.56	0.989	> 5	0.992	> 5
EKVX (lung adenocarcinoma, adherent)	0.95	> 5	0.908	> 2.56	0.949	> 5	0.968	> 5
EM-2 (chronic myeloid leukaemia, suspension)	0.971	> 5	0.964	> 2.56	0.772	2.18	0.971	> 5
ES1 (Ewing sarcoma, adherent)	0.982	> 5	0.833	1.61	0.957	> 5	0.953	> 5
ES3 (Ewing sarcoma, adherent)	0.946	> 5	0.885	> 2.56	0.985	> 5	0.895	> 5
ES5 (Ewing sarcoma, adherent)	0.982	> 5	0.841	2.17	0.98	> 5	0.903	> 5
ES6 (Ewing sarcoma, adherent)	0.973	> 5	0.808	1.73	0.973	> 5	0.96	> 5
ES7 (Ewing sarcoma, adherent)	0.983	> 5	0.87	2.49	0.983	> 5	0.928	> 5
ES8 (Ewing sarcoma, adherent)	0.987	> 5	0.984	> 2.56	0.948	> 5	0.987	> 5
ES-2 (ovary, adherent)	0.991	> 5	0.955	> 2.56	0.99	> 5	0.991	> 5
ETK-1 (biliary tract, adherent)	0.977	> 5	0.871	> 2.56	0.981	> 5	0.97	> 5
EVSA-T (breast, adherent)	0.991	> 5	0.983	> 2.56	0.883	4.03	0.983	> 5

Cell Line	AUC [1]	IC50 [1] [µM]	AUC [2]	IC50 [2] [µM]	AUC [3]	IC50 [3] [µM]	AUC [4]	IC50 [4] [µM]
EW-1 (Ewing sarcoma, semi-adherent)	0.989	> 5	0.852	1.73	0.985	> 5	0.984	> 5
EW-3 (Ewing sarcoma, adherent)	0.972	> 5	0.953	> 2.56	0.968	> 5	0.984	> 5
EW-11 (Ewing sarcoma, adherent)	0.974	> 5	0.884	> 2.56	0.981	> 5	0.789	2.93
EW-13 (Ewing sarcoma, suspension)	0.984	> 5	0.904	> 2.56	0.985	> 5	0.982	> 5
EW-16 (Ewing sarcoma, adherent)	0.976	> 5	0.826	1.64	0.984	> 5	0.884	> 5
EW-18 (Ewing sarcoma, suspension)	0.981	> 5	0.923	> 2.56	0.931	> 5	0.985	> 5
EW-24 (Ewing sarcoma, semi-adherent)	0.992	> 5	0.981	> 2.56	0.991	> 5	0.987	> 5
EoL-1-cell (haematopoietic neoplasm, suspension)	0.944	> 5	0.869	1.9	0.985	> 5	0.985	> 5
Farage (B-cell lymphoma, suspension)	0.993	> 5	0.882	1.87	0.872	3.36	0.968	> 5
GB-1 (glioma, adherent)	0.982	> 5	0.925	> 2.56	0.983	> 5	0.979	> 5
GCIY (stomach, adherent)	0.982	> 5	0.938	> 2.56	0.801	2.81	0.93	> 5
GDM-1 (acute myeloid leukaemia, suspension)	0.987	> 5	0.871	2.23	0.971	> 5	0.987	> 5
GI-1 (glioma, adherent)	0.982	> 5	0.983	> 2.56	0.93	> 5	0.978	> 5
GI-ME-N (neuroblastoma, adherent)	0.952	> 5	0.975	> 2.56	0.821	4.37	0.963	> 5
GOTO (neuroblastoma, adherent)	0.981	> 5	0.961	> 2.56	0.962	> 5	0.928	> 5
GR-ST (lymphoblastic leukaemia, suspension)	0.968	> 5	0.838	2.27	0.97	> 5	0.981	> 5
GRANTA-519 (B-cell lymphoma, suspension)	0.991	> 5	0.983	> 2.56	0.986	> 5	0.988	> 5
GT3TKB (stomach, adherent)	0.99	> 5	0.987	> 2.56	0.99	> 5	0.99	> 5
H9 (lymphoid neoplasm, suspension)	0.992	> 5	0.868	1.67	0.815	2.15	0.992	> 5
H-EMC-SS (chondrosarcoma, adherent)	0.974	> 5	0.981	> 2.56	0.981	> 5	0.905	> 5

Cell Line	AUC [1]	IC50 [1] [µM]	AUC [2]	IC50 [2] [µM]	AUC [3]	IC50 [3] [µM]	AUC [4]	IC50 [4] [µM]
HA7-RCC (kidney, adherent)	0.984	> 5	0.959	> 2.56	0.981	> 5	0.979	> 5
HAL-01 (lymphoblastic leukaemia, suspension)	0.989	> 5	0.721	0.62	0.863	3.52	0.985	> 5
HC-1 (hairy cell leukaemia, suspension)	0.979	> 5	0.814	1.33	0.863	4.06	0.985	> 5
HCC1187 (breast, suspension)	0.978	> 5	0.975	> 2.56	0.961	> 5	0.942	> 5
HCC1500 (breast, adherent)	0.977	> 5	0.977	> 2.56	0.98	> 5	0.983	> 5
HCC2157 (breast, suspension)	0.947	> 5	0.955	> 2.56	0.975	> 5	0.975	> 5
HCC2218 (breast, suspension)	0.969	> 5	0.759	1.11	0.984	> 5	0.98	> 5
HCC2998 (large intestine, adherent)	0.988	> 5	0.827	1.5	0.981	> 5	0.966	> 5
HD-MY-Z (Hodgkin lymphoma, adherent)	0.973	> 5	0.972	> 2.56	0.83	3.16	0.976	> 5
HDLM-2 (Hodgkin lymphoma, suspension)	0.987	> 5	0.843	1.77	0.981	> 5	0.989	> 5
HEL (acute myeloid leukaemia, semi-adherent)	0.968	> 5	0.855	1.52	0.805	2.04	0.992	> 5
HH (T-cell leukaemia, suspension)	0.978	> 5	0.872	> 2.56	0.977	> 5	0.976	> 5
HOP-62 (lung adenocarcinoma, adherent)	0.974	> 5	0.869	2.35	0.955	> 5	0.986	> 5
HSC-39 (stomach, suspension)	0.99	> 5	0.955	> 2.56	0.991	> 5	0.977	> 5
HT (B-cell lymphoma, suspension)	0.989	> 5	0.86	1.87	0.99	> 5	0.989	> 5
HT-144 (melanoma, adherent)	0.984	> 5	0.83	1.88	0.98	> 5	0.984	> 5
HUTU-80 (digestive system, adherent)	0.975	> 5	0.978	> 2.56	0.947	> 5	0.962	> 5
IM-9 (myeloma, suspension)	0.988	> 5	0.939	> 2.56	0.96	> 5	0.991	> 5
IMR-5 (neuroblastoma, adherent)	0.992	> 5	0.925	> 2.56	0.992	> 5	0.992	> 5
IST-MEL1 (melanoma, adherent)	0.982	> 5	0.91	> 2.56	0.982	> 5	0.969	> 5
